# In PubChem BioAssay AID1345083 (National Center for Advancing Translational Sciences (NCATS), 2018):
# Hit rate of the full screen: of about 94,000 compounds, about 6,200 (6.6%) were called active. The inconclusive results got no clear call from the source; some entries with a clear call stand among them for comparison. Calls follow the shape of the dose curve; as a rule, active = well fitted inhibition curve with a large enough effect; inconclusive = small, poorly fitted or top-dose-only effect; inactive = flat fitted curve, though single readings scatter. Where the call is inconclusive, the potency comes from a doubtful curve fit.
# Assay: Cytotoxic Profiling in HEK 293 Cell Line of Diverse Libraries Using Quantitative High-Throughput Screening; also: nearly all actives have a fitted effect of over 60% in size
# Conditions: HEK 293 viability, ATP luminescence (CellTiter-Glo), 48-72 h; series mostly up to 115 µM
# Summary of the method: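 HEK 293 cells at 250 cells/well were exposed to compounds by pintool transfer for 48 or 72 hr at 37 degree Celsius, 5% CO2. Viability was read as ATP-coupled luminescence with CellTiter-Glo after 10 min at room temperature.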
# Potency is read from the fitted curve at half-maximal effect; tags tell the direction and shape of the fitted curve.
row,SMILES,Potency
1,COc1cc(Cl)ccc1C(=O)N1CCN(c2cc(C(F)(F)F)ncn2)CC1,"inconclusive: 39.8 µM [inhibitor, partial curve, poor fit]"
2,NCc1ccc(-c2ccc(F)cc2F)cc1,"inconclusive: 100 µM [inhibitor, partial curve, poor fit]"
3,COc1cc(C)ccc1OCC(=O)c1ccc2c(c1)N(CC(=O)N1CCCC1)C(=O)CO2,"inconclusive: 50.1 µM [inhibitor, partial curve, poor fit]"
4,COc1ccc(-c2ccccc2C(=O)NC(C)C)nn1,inactive
5,O=C1CCN(C(=O)[C@@H]2CCCN2Cc2cccc(OC(F)(F)F)c2)CCCCCCN1,"inconclusive: 50.1 µM [inhibitor, partial curve, poor fit]"
6,COc1cc(-c2ccc(C)s2)cc2c1OCCNC2,inactive
7,Cc1cccc(CNC(=O)CCC2CCN(S(=O)(=O)c3ccccc3)CC2)c1,"inconclusive: 56.2 µM [inhibitor, partial curve, poor fit]"
8,NS(=O)(=O)c1ccc(F)c(C(=O)NCc2ccc3nonc3c2)c1,"inconclusive: 56.2 µM [inhibitor, partial curve, poor fit]"
9,CC(=O)NCCC(=O)N1Cc2ccccc2CC2(CCCN(CC3CCNC3)C2)C1 (stereo not drawn),inactive
10,O=C(c1ccc(F)c(F)c1)N1CCC(n2cc(-c3nc(-c4ccccc4)no3)nn2)C1 (stereo not drawn),active: 39.8 µM
11,CCn1cc(S(=O)(=O)N2C[C@@H](COC)[C@H](c3ccncc3)C2)cn1,inactive
12,COCC(=O)Nc1nc2c(s1)C[C@@H]1[C@](C)(CO)[C@H](O)CC[C@@]1(C)[C@@H]2CC(=O)NCCN1CCOCC1,inactive
13,O=C(C1CCCC1)N1C[C@@H](CO)[C@@H]2Oc3c(F)cccc3[C@@H]21,"inconclusive: 79.4 µM [inhibitor, partial curve]"
14,CC(=O)N[C@H]1C[C@@H](c2cc(C)c(C)cc2C)O[C@@H](C(C)(C)C)C1,"inconclusive: 89.1 µM [inhibitor, single point]"
15,Cc1ccccc1C(=O)NCc1nnc2c(-c3nc(C(C)C)no3)cccn12,"inconclusive: 89.1 µM [inhibitor, partial curve, poor fit]"
16,O=C(Cc1cccc(Cl)c1)N1CCN(c2ccc3nnc(C4CC4)n3n2)CC1,"inconclusive: 56.2 µM [inhibitor, partial curve, poor fit]"
17,CCc1noc(-c2cn(C3CCN(C(=O)c4cccc(C#N)c4)CC3)nn2)n1,inactive
18,O=C(CCc1c[nH]c2ccccc12)N1CCC(c2noc(C3CC3)n2)C1 (stereo not drawn),inactive
19,COc1ccccc1N1CC2(CN(CCOc3ccccc3)C(=O)O2)C1,"inconclusive: 70.8 µM [inhibitor, partial curve]"
20,CN(C)C(=O)C1CCN(C(=O)c2ccc(-c3cccs3)cc2)CC1,inactive
21,COc1ccc(NC(=O)c2ccc3c(c2)N(C)C2CCCCCN2C3=O)cc1 (stereo not drawn),"inconclusive: 50.1 µM [inhibitor, partial curve, poor fit]"

row,SMILES,Potency
1,O=C(Cc1ccccc1)N1CCC2(Cc3ccccc3NC2=O)C1 (stereo not drawn),active: 100 µM
2,O=C(c1cccc2[nH]ccc12)N1CCC2(CC1)N=C(c1ccc(Cl)cc1)NO2,"inconclusive: 50.1 µM [inhibitor, partial curve, poor fit]"
3,O=C(c1cc(-c2ccc(Cl)cc2Cl)c2nncn2n1)N1CCCCC1,"inconclusive: 126 µM [inhibitor, single point]"
4,COc1ccc(OC)c(CN2CCNc3cnc(-c4ccccc4)cc3C2)c1,active: 56.2 µM
5,CC(=O)O[C@H]1[C@@H](CN(C)S(=O)(=O)c2cccs2)[C@H]2O[C@@H]1c1ccccc12,"inconclusive: 39.8 µM [inhibitor, single point]"
6,c1ccc(Nc2cc3c(cn2)CN(Cc2c[nH]c4ccccc24)CCN3)cc1,"inconclusive: 50.1 µM [inhibitor, full curve, poor fit]"
7,COCCNC(=O)N1CCC2(CC1)CN(C)CC2COC (stereo not drawn),inactive
8,COc1ccc(-c2nc(CN3CCN(CCO)CC3)c(C)o2)c2ccccc12,"inconclusive: 56.2 µM [inhibitor, partial curve, poor fit]"
9,O=C(Cn1nc2c(cc1=O)CCCCC2)N1CC=C(c2c[nH]c3ccccc23)CC1,"inconclusive: 44.7 µM [inhibitor, partial curve, poor fit]"
10,COc1ccc(F)cc1-c1ccc(CN2CCCCC2C(=O)NC2CCC2)cc1 (stereo not drawn),active: 35.5 µM
11,CCOC(=O)C1CCN(C(=O)c2ccc3oc(-c4cccnc4)nc3c2)CC1,inactive
12,COc1ccc(C(=O)N2CCN(Cc3cn(-c4ccccc4)nn3)CC2)cc1,"inconclusive: 56.2 µM [inhibitor, partial curve, poor fit]"
13,Cc1nn(-c2ccccc2)c2c1C(C(C)C)N(C1CCCN(C(=O)NC3CCCC3)C1)C2=O (stereo not drawn),"inconclusive: 50.1 µM [inhibitor, partial curve, poor fit]"
14,CC1(C)CC(NC(=O)C2CCN(c3nc(-c4ccccc4)nc4c3CCC4)CC2)CCO1 (stereo not drawn),"inconclusive: 22.4 µM [inhibitor, full curve, poor fit]"
15,O=C1[C@@H]2C[C@@H](CN2Cc2cnc3ccccc3c2)Oc2ccccc2N1Cc1ccccc1,active: 50.1 µM
16,O=C(NCCc1ccc(Cl)cc1)c1nc2cccnc2n(CCc2ccccc2)c1=O,"inconclusive: 50.1 µM [inhibitor, partial curve, poor fit]"
17,O=C(Cc1ccccc1)N1CCC2(CC1)CC(CCOCc1ccccc1)CCO2 (stereo not drawn),"inconclusive: 56.2 µM [inhibitor, partial curve, poor fit]"
18,CCCCn1c(=O)c(C(=O)N2CCN(C(=O)C(C)(C)C)CC2)nc2cccnc21,inactive
19,Cc1noc(C)c1CN1CCc2nc(C(=O)NCCOc3ccccc3)oc2CC1,"inconclusive: 56.2 µM [inhibitor, partial curve, poor fit]"
20,COc1ccc(O[C@H]2COCCN(C(=O)c3ccc(C(F)(F)F)cc3)C2)cc1,"inconclusive: 126 µM [inhibitor, single point]"
21,COc1cccc(CN2CCOC3CCN([S+](=O)([O-])c4ccccc4C)CC3C2=O)c1 (stereo not drawn),"inconclusive: 50.1 µM [inhibitor, partial curve, poor fit]"

row,SMILES,Potency
1,CCOC(=O)C1=CN(CC(=O)N(C)c2cccc(C)c2)S(=O)(=O)N=C1C,inactive
2,COc1cccc(-c2ccnc3nc(Cc4ccc(F)cc4)nn23)c1,"inconclusive: 44.7 µM [inhibitor, partial curve]"
3,COc1ccc(C)cc1-c1cn(C)c(=O)n2cc(COc3ccc(Cl)cc3)nc12,"inconclusive: 35.5 µM [inhibitor, full curve]"
4,COc1ccc(S(=O)(=O)N2CC[C@H](n3c(=O)n(C)c4cccnc43)C2)cc1,"inconclusive: 56.2 µM [inhibitor, partial curve, poor fit]"
5,O=C(Nc1cc(-c2ccncc2)nn1-c1ccccc1)c1ccc(Cl)cc1,active: 79.4 µM
6,Cc1noc(C)c1-c1cc2cc(CN(C)C)oc2c(Nc2ccncn2)n1,"inconclusive: 100 µM [inhibitor, partial curve]"
7,O=C(c1ccc(F)cc1Cl)N1CCC(Cc2nc(-c3ccccc3)no2)CC1,"inconclusive: 8.91 µM [inhibitor, full curve, poor fit]"
8,Fc1ccc(C2Cn3nnc(-c4nc(-c5ccccc5Br)no4)c3CO2)cc1 (stereo not drawn),"inconclusive: 50.1 µM [inhibitor, partial curve, poor fit]"
9,COc1ccc(NC(=O)c2cn3cc(-c4cccc(OC)c4)sc3n2)cc1,"inconclusive: 56.2 µM [inhibitor, partial curve, poor fit]"
10,COc1ccccc1-c1[nH]nc2ncc(-c3cccc(O)c3)nc12,active: 39.8 µM
11,O=C(c1ccc(Cl)nc1)N1CCCC(C(=O)N2CCC(N3CCCC3=O)CC2)C1 (stereo not drawn),inactive
12,CCC(CNc1nc(CCN)nc2ccccc12)N(C)CC (stereo not drawn),"inconclusive: 63.1 µM [inhibitor, partial curve, poor fit]"
13,O=C(NCc1ccc2c(c1)OCO2)C1COC2(CCCCC2)N1C(=O)c1cccc(F)c1 (stereo not drawn),"inconclusive: 89.1 µM [inhibitor, partial curve, poor fit]"
14,CCCCN(Cc1ccc(S(=O)(=O)NC)cc1)Cc1ccco1,"inconclusive: 79.4 µM [inhibitor, single point]"
15,O=C(Cn1nc2c(cc1=O)CCCC2)N1CCN(Cc2ccccc2Cl)CC1,"inconclusive: 31.6 µM [inhibitor, full curve, poor fit]"
16,Cc1ccc(Nc2ccnc(N3CCCC(C(=O)NCc4cccs4)C3)n2)cc1 (stereo not drawn),active: 10 µM
17,CCn1cc(CN2CCCC23CCN(c2cc(C)nc4ccccc24)CC3)cn1,"inconclusive: 50.1 µM [inhibitor, partial curve, poor fit]"
18,CC(C)CNC(=O)CCC1CCN(S(=O)(=O)c2ccccc2F)CC1,"inconclusive: 79.4 µM [inhibitor, partial curve, poor fit]"
19,CN1[C@@H](CCC(=O)NCc2ccc(F)cc2)CNC(=O)[C@@H]2[C@H]1CCN2Cc1ccc(F)cc1,"inconclusive: 79.4 µM [inhibitor, partial curve, poor fit]"
20,COc1ccccc1-c1nc2cnccn2c1NCCC(=O)N1CCc2ccccc21,active: 20 µM
21,O=C(c1ccncc1)N1CCCCC1c1noc(COc2ccc(F)cc2)n1 (stereo not drawn),"inconclusive: 89.1 µM [inhibitor, single point]"
